# Source: the supplement of paper PMC8728848
# This is one part of the list.
# B1: IDGF2 (Drosophila melanogaster), Q9V3D4 (protein)
# chain: MKAWIWFTFVACLFAASTEAASNLVCYYDSSSYTREGLGKLLNPDLEIALQFCSHLVYGYAGLRGENLQAYSMNENLDIYKHQFSEVTSLKRKYPHLKVLLSVGGDHDIDPDHPNKYIDLLEGEKVRQIGFIRSAYDLVKTYGFDGLDLAYQFPKNKPRKVHGDLGLAWKSIKKLFTGDFIVDPHAALHKEQFTALVRDVKDSLRADGFLLSLTVLPNVNSTWYFDIPALNGLVDFVNLATFDFLTPARNPEEADYSAPIYHPDGSKDRLAHLNADFQVEYWLSQGFPSNKINLGVATYGNAWKLTKDSGLEGVPVVPETSGPAPEGFQSQKPGLLSYAEICGKLSNPQNQFLKGNESPLRRVSDPTKRFGGIAYRPVDGQITEGIWVSYDDPDSASNKAAYARVKNLGGVALFDLSYDDFRGQCSGDKYPILRAIKYRLHHHHHH
# Assays:
# Assay in all cases: glycan array binding signal (z-score within array); higher = stronger binding
# Details in all cases: glycan notation: IUPAC condensed, linker removed
# [1] = target: Fuc(b1-3)GlcNAc
# In short: (§1)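 The binding signal is a Z-score computed within each array and averaged over linkers. Arrays of the same protein sequence at different concentrations or buffers were also averaged together. Data originate from 3228 arrays in the Consortium for Functional Glycomics database, kept only where the protein sequence was available.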
# [2] = target: Gal(a1-2)Gal
# In short: as §1
# [3] = target: Gal(a1-3)Gal
# In short: as §1
# [4] = target: Gal(a1-3)Gal(b1-3)Glc
# In short: as §1
# [5] = target: Gal(a1-3)Gal(b1-3)GlcNAc
# In short: as §1
# [6] = target: Gal(a1-3)Gal(b1-4)GlcNAc
# In short: as §1
# [7] = target: Gal(a1-3)Gal(b1-4)[Fuc(a1-3)]GalNAc
# In short: as §1
# [8] = target: Gal(a1-3)GlcNAc
# In short: as §1
# [9] = target: Gal(a1-3)[Gal(a1-4)]Gal(b1-4)GlcNAc
# In short: as §1
# [10] = target: Gal(a1-4)Gal(b1-4)Gal
# In short: as §1
# [11] = target: Gal(a1-4)Gal(b1-4)GalNAc
# In short: as §1
# [12] = target: Gal(a1-4)GlcNAc
# In short: as §1
# [13] = target: Gal(a1-6)Glc
# In short: as §1
# [14] = target: Gal(b1-2)Gal
# In short: as §1
# [15] = target: Gal(b1-3)Gal
# In short: as §1
# [16] = target: Gal(b1-3)GalNAc
# In short: as §1
# [17] = target: Gal(b1-3)GalNAc(b1-3)Gal(a1-4)Gal(b1-4)Glc
# In short: as §1
# [18] = target: Gal(b1-3)GalNAc(b1-3)Gal(b1-4)Glc
# In short: as §1
# [19] = target: Gal(b1-3)GalNAc(b1-3)Gal(b1-4)GlcNAc
# In short: as §1
# [20] = target: Gal(b1-3)GalNAc(b1-4)Gal(b1-4)Glc
# In short: as §1
# [21] = target: Gal(b1-3)GalNAc(b1-4)[Neu5Ac(a2-3)]Gal(b1-4)Glc
# In short: as §1
# [22] = target: Gal(b1-3)GlcNAc(b1-3)Gal(b1-3)GlcNAc
# In short: as §1
# [23] = target: Gal(b1-3)[Fuc(a1-4)]GlcNAc
# In short: as §1
# [24] = target: Gal(b1-3)[Fuc(a1-4)]GlcNAc(b1-3)Gal(b1-3)[Fuc(a1-4)]GlcNAc
# In short: as §1
# [25] = target: Gal(b1-3)[Fuc(a1-4)]GlcNAc(b1-3)Gal(b1-4)GlcNAc
# In short: as §1
# [26] = target: Gal(b1-3)[Fuc(a1-4)]GlcNAc(b1-3)Gal(b1-4)[Fuc(a1-3)]GlcNAc
# In short: as §1
# [27] = target: Gal(b1-3)[GlcNAc(b1-6)]GalNAc
# In short: as §1
# [28] = target: Gal(b1-3)[GlcNAc(b1-6)]GlcNAc
# In short: as §1
# [29] = target: Gal(b1-3)[Neu5Ac(a2-6)]GalNAc
# In short: as §1
# [30] = target: Gal(b1-3)[Neu5Ac(a2-6)]GlcNAc
# In short: as §1
# [31] = target: Gal(b1-3)[Neu5Ac(a2-6)]GlcNAc(a1-4)Gal(b1-4)Glc
# In short: as §1
# [32] = target: Gal(b1-3)[Neu5Ac(b2-6)]GlcNAc
# In short: as §1
# [33] = target: Gal(b1-4)GalNAc(a1-3)[Fuc(a1-2)]Gal(b1-4)GlcNAc
# In short: as §1
# [34] = target: Gal(b1-4)GalNAc(b1-3)[Fuc(a1-2)]Gal(b1-4)GlcNAc
# In short: as §1
# [35] = target: Gal(b1-4)Glc
# In short: as §1
# [36] = target: Gal(b1-4)Glc6S
# In short: as §1
# [37] = target: Gal(b1-4)GlcNAc
# In short: as §1
# [38] = target: Gal(b1-4)GlcNAc(b1-2)Man(a1-3)[Gal(b1-4)GlcNAc(b1-2)Man(a1-6)]Man(b1-4)GlcNAc(b1-4)GlcNAc
# In short: as §1
# [39] = target: Gal(b1-4)GlcNAc(b1-3)Gal(b1-3)GlcNAc
# In short: as §1
# [40] = target: Gal(b1-4)GlcNAc(b1-3)Gal(b1-4)Glc
# In short: as §1
# [41] = target: Gal(b1-4)GlcNAc(b1-3)Gal(b1-4)GlcNAc
# In short: as §1
# [42] = target: Gal(b1-4)GlcNAc(b1-3)Gal(b1-4)GlcNAc(b1-3)Gal(b1-4)GlcNAc
# In short: as §1
# [43] = target: Gal(b1-4)GlcNAc(b1-3)Gal(b1-4)[Fuc(a1-3)]GlcNAc(b1-3)Gal(b1-4)[Fuc(a1-3)]GlcNAc
# In short: as §1
# [44] = target: Gal(b1-4)GlcNAc(b1-3)GalNAc
# In short: as §1
# [45] = target: Gal(b1-4)GlcNAc(b1-3)[Gal(b1-4)GlcNAc(b1-6)]GalNAc
# In short: as §1
binder,measurement,setting,value
B1,glycan array binding signal (z-score),[1],0.017
same,glycan array binding signal (z-score),[2],-0.136
same,glycan array binding signal (z-score),[3],-0.457
same,glycan array binding signal (z-score),[4],0.367
same,glycan array binding signal (z-score),[5],-0.286
same,glycan array binding signal (z-score),[6],-0.382
same,glycan array binding signal (z-score),[7],-0.365
same,glycan array binding signal (z-score),[8],-0.42
same,glycan array binding signal (z-score),[9],-0.273
same,glycan array binding signal (z-score),[10],-0.196
same,glycan array binding signal (z-score),[11],-0.481
same,glycan array binding signal (z-score),[12],-0.122
same,glycan array binding signal (z-score),[13],0.002
same,glycan array binding signal (z-score),[14],0.184
same,glycan array binding signal (z-score),[15],0.071
same,glycan array binding signal (z-score),[16],-0.108
same,glycan array binding signal (z-score),[17],-0.511
same,glycan array binding signal (z-score),[18],-0.183
same,glycan array binding signal (z-score),[19],-0.446
same,glycan array binding signal (z-score),[20],-0.283
same,glycan array binding signal (z-score),[21],-0.271
same,glycan array binding signal (z-score),[22],-0.411
same,glycan array binding signal (z-score),[23],-0.285
same,glycan array binding signal (z-score),[24],0.307
same,glycan array binding signal (z-score),[25],0.056
same,glycan array binding signal (z-score),[26],-0.21
same,glycan array binding signal (z-score),[27],-0.208
same,glycan array binding signal (z-score),[28],-0.046
same,glycan array binding signal (z-score),[29],-0.24
same,glycan array binding signal (z-score),[30],-0.096
same,glycan array binding signal (z-score),[31],-0.325
same,glycan array binding signal (z-score),[32],-0.472
same,glycan array binding signal (z-score),[33],-0.289
same,glycan array binding signal (z-score),[34],-0.185
same,glycan array binding signal (z-score),[35],-0.257
same,glycan array binding signal (z-score),[36],-0.199
same,glycan array binding signal (z-score),[37],-0.03
same,glycan array binding signal (z-score),[38],-0.133
same,glycan array binding signal (z-score),[39],0.088
same,glycan array binding signal (z-score),[40],-0.086
same,glycan array binding signal (z-score),[41],-0.325
same,glycan array binding signal (z-score),[42],-0.353
same,glycan array binding signal (z-score),[43],0.098
same,glycan array binding signal (z-score),[44],0.065
same,glycan array binding signal (z-score),[45],0.121
